Common to all, as to assay: co-IP; fission yeast cell extracts; lysis and wash buffer 50 mM Tris pH 8.0, 150 mM NaCl, 10% glycerol, 5 mM EDTA, 0.5% NP40; IP with anti-myc or anti-FLAG and Dynabeads Protein G, western blot; Tpz1-Pot1 also in ccq1Δ poz1Δ cells (anti-myc IP of Tpz1-myc)
Assay [1] has as its target T1, Tpz1-Y439R,L445R (myc-tagged, expressed in fission yeast) (Schizosaccharomyces pombe) (UniProt O14246).
T1 sequence: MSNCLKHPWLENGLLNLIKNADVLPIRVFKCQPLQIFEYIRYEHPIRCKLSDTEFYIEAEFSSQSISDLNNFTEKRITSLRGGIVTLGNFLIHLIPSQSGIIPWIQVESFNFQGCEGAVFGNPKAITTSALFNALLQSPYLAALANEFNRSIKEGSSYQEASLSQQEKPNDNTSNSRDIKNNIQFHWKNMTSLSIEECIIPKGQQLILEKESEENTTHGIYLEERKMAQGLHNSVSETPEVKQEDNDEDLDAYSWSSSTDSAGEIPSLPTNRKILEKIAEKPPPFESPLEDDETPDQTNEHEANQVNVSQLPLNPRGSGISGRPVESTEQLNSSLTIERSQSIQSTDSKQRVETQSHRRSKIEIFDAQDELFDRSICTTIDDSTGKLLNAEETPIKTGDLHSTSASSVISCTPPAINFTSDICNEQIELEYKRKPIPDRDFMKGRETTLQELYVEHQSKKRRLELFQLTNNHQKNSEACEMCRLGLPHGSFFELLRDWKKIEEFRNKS

Assay [2] has as its target T2, Tpz1-[1–485] (C-terminally truncated Tpz1, myc-tagged, expressed in fission yeast) (Schizosaccharomyces pombe) (UniProt O14246).
T2 sequence: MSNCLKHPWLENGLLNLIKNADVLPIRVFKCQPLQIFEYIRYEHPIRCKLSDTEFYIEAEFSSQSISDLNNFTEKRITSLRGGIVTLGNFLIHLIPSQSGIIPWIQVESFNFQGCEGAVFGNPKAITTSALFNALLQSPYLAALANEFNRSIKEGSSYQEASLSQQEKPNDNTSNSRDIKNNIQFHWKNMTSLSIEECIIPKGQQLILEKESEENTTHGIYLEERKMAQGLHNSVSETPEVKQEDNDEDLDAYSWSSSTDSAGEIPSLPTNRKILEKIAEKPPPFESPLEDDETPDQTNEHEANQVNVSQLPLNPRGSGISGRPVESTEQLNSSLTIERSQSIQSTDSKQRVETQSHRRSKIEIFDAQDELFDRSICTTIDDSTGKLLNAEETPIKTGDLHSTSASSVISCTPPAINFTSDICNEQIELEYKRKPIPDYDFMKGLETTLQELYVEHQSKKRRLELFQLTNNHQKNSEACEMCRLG

For assay [3], the target named is T3, Tpz1-L449R (myc-tagged, expressed in fission yeast) (Schizosaccharomyces pombe) (UniProt O14246).
T3 sequence: T1 sequence with R439Y, R445L, L449R

In assay [4] the target is T4, Tpz1-Y439R,L445R,L449R (myc-tagged, expressed in fission yeast) (Schizosaccharomyces pombe) (UniProt O14246).
T4 sequence: T1 sequence with L449R

Assay [5] addresses T5, Tpz1-myc (full length Tpz1, Tpz1-FL, expressed in fission yeast) (Schizosaccharomyces pombe) (UniProt O14246).
T5 sequence: T1 sequence with R439Y, R445L

Changes are numbered by the printed parent chain. These are yes or no findings as the source states them, for the method shown. Binding seen in cells or lysates may run through a third protein. Some results given as binding are weak or reduced against the parent protein; the word gives no strength. Tags and fused reporters may be left off the sequences shown.

B1: Poz1-FLAG (expressed in fission yeast) (protein, UniProt O13852 1-249)
chain: MNEKIRSQSVLNTLETFFIKENHYDMQREESSIVNACLRYLGYSKSMCHEKMPIFMDIAFIEYCFNLSLDPSSFQNLPITQTQPDSQQILWEYSLISNALERLENIELERQNCMREDGLVKYTNELLLNKETLNNEALKLYSCAKAGICRWMAFHFLEQEPIDHINFTKFLQDWGSHNEKEMEALQRLSKHKIRKRLIYVSQHKKKMPWSKFNSVLSRYIQCTKLQLEVFCDYDFKQREIVKMLTSNIN
Take B1: the binding result was “binds” in assay [1]; “no binding” in assay [2]; “binds” in assay [3]; “binds” in assay [4]; “binds” in assay [5].

For the origin of these results see article PMC4199508.
